Results are given in words; binding and its absence hold for the method and conditions named. In cells and extracts the contact can be indirect. Some entries that bind do so weakly or less than the wild type.
Tests used:
[1] = target: Ezrin (human (endogenous in SKBR3 and MCF10A)) (UniProt P15311); assay: proximity ligation; Duolink PLA on fixed, permeabilised SKBR3 cells, endogenous proteins; control cells, Erbin knock-down, NHERF1 knock-down, NSC668394 (10 uM, 16 h), serum free or 100 ng/ml EGF
[2] = target: Erb-b2 receptor tyrosine kinase 2 (HER2) (human (endogenous in SKBR3)) (UniProt P04626); assay: as above
[3] = target: Erb-b2 receptor tyrosine kinase 2 (HER2) (human (endogenous in SKBR3)) (UniProt P04626); assay: co-IP; extracts of SKBR3 cells (control and Erbin knock-down) in RIPA buffer, incubated overnight at 4 C with protein A/G beads and antibody to the endogenous bait (anti-HER2 or anti-HSP90) or control IgG; Western blot
[4] = target: Ezrin (human (endogenous in SKBR3 and MCF10A)) (UniProt P15311); assay: condition: only in MCF10A cells, which do not express HER2; proximity ligation; Duolink PLA on fixed, permeabilised MCF10A cells (non-transformed, do not express HER2), endogenous proteins

Sequences of proteins named here, by UniProt entry; tags and fusion partners are left off.
UniProt P15311: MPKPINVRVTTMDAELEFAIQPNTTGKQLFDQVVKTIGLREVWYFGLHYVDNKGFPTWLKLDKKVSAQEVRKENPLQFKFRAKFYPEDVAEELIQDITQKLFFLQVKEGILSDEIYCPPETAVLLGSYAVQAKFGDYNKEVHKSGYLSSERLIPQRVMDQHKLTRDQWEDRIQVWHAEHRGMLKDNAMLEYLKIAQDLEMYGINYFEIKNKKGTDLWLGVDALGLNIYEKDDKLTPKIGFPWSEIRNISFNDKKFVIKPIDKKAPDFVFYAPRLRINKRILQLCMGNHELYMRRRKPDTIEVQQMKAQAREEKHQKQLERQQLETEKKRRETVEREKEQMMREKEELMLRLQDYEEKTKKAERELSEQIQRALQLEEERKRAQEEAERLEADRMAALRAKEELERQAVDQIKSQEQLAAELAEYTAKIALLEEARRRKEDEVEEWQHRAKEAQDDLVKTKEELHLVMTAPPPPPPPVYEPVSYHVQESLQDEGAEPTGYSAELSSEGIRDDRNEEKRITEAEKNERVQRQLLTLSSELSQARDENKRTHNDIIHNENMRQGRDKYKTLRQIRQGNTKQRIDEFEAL
UniProt Q96RT1: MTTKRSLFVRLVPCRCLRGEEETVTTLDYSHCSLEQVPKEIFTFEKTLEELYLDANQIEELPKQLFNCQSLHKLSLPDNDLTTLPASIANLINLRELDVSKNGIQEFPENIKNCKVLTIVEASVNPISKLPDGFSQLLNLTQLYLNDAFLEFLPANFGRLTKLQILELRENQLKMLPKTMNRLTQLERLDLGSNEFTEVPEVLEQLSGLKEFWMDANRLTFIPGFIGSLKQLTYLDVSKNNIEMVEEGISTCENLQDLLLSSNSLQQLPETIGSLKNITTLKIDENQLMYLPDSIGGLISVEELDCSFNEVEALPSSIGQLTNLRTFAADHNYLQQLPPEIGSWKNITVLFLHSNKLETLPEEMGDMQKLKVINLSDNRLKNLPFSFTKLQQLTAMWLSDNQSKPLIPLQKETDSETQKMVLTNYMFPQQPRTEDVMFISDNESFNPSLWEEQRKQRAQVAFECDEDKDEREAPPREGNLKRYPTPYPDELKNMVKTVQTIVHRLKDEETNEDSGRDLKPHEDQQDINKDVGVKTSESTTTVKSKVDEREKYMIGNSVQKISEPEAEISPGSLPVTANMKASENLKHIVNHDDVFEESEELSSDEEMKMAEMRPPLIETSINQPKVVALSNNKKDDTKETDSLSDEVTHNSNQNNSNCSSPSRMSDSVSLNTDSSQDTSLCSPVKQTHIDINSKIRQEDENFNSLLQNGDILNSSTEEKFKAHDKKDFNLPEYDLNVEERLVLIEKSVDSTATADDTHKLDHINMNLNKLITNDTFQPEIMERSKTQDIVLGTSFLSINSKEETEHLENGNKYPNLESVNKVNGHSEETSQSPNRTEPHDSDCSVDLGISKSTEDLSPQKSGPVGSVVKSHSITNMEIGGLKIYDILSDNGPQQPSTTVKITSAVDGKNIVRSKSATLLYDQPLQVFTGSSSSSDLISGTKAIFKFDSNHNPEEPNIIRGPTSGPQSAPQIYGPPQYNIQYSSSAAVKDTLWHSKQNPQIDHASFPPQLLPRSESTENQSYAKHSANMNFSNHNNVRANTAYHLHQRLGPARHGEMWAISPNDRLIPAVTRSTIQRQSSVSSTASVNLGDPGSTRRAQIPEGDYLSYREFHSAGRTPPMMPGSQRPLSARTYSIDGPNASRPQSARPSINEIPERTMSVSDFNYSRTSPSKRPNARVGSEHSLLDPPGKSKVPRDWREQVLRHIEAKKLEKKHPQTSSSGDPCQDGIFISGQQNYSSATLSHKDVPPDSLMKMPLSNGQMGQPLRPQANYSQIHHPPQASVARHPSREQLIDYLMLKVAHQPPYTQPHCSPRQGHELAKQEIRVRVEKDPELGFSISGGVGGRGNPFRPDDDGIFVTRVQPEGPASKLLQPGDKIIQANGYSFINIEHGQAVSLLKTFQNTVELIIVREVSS

Substance | binding [1] | binding [2] | binding [3] | binding [4]
Erbin (ErbB2 Interacting Protein) (from UniProt Q96RT1 1-1412) | binds | binds | binds | no binding
Ezrin (from UniProt P15311 1-586) | – | binds | binds | –

From article PMC12090624
